Several values for one entry are separate records, joined by “and”; a condition that tells them apart may be missing. Equal values may be shown once.

For three molecules, MFI results are on record in patent US20240043504A1.

B1: mAb10914 (antibody)
heavy: EVQLVESGGGLVQPGGSLRLSCAASGLIVSRNYMIWVRQAPGKGLEWVSVIYSGGSTFYADSVKGRFTISRHNSKNTLYLQMNSLRAEDTAVYYCARDLGTGGMDVWGQGTTVTVSS[human IgG1 constant region left out]
light: DIQLTQSPSFLSASVGDRVTITCWASQGISSYLAWYQQKPGKAPKLLIYAASTLQSGVPSRFSGSGSGTEFTLTISSLQPEDFATYYCQQLNSYPLTFGGGTKVEIKRTVAAPSVFIFPPSDEQLKSGTASVVCLLNNFYPREAKVQWKVDNALQSGNSQESVTEQDSKDSTYSLSSTLTLSKADYEKHKVYACEVTHQGLSSPVTKSFNRGEC
B2: mAb10957 (antibody)
heavy: EVQLVESGGGLVQPGGSLRLSCAASGVTVSSNYMSWVRQAPGKGLEWVSVIYSGGSTFYADSVKGRFTISRDNSKNTLFLQMNSLRIEDTAVYYCARDLGPYGMDVWGQGTTVTVSS[human IgG1 constant region left out]
light: DIQLTQSPSFLSASVGDRVTITCRASQGISSYLAWYQQKPGKAPKLLIYAASTLQSGVPSRFSGSGSGTQFILTISSLQPEDFATYYCQQLNSYPGFTFGPGTKVDIKRTVAAPSVFIFPPSDEQLKSGTASVVCLLNNFYPREAKVQWKVDNALQSGNSQESVTEQDSKDSTYSLSSTLTLSKADYEKHKVYACEVTHQGLSSPVTKSFNRGEC
B3: mAb10913 (antibody)
heavy: EVQLVESGGGLVQPGGSLRLSCAASGFTFRNYEMNWVRQAPGKGLEWVSYITSSGSTMYYADSVKGRFTISRDNAKNSLYLQMNSLRAEDTAVYYCARDGFYYYYAMDVWGQGTTVTVSS[human IgG1 constant region left out]
light: QSVLTQPPSVSAAPGQKVTISCSGSSSNIGNNYVSWYQQLPGTAPKLLIYDNNKRPSGIPDRFSGSKSGTSATLGITGLQTGDEADYYCGTWDSSLSVGRVFGTGTKVTVLGQPKAAPSVTLFPPSSEELQANKATLVCLISDFYPGAVTVAWKADSSPVKAGVETTTPSKQSNNKYAASSYLSLTPEQWKSHRSYSCQVTHEGSTVEKTVAPTECS

The assay has as its target SARS-CoV-2 Spike Protein (RBD)(R319-F541).mmH (SARS-CoV-2). Description: Luminex, supernatant. The note with it: remark: other sources report otherwise.
Regarding B1, the MFI is 32000 MFI and 29600 MFI.
Take B2: the MFI is 23400 MFI and 20600 MFI.
Regarding B3, the MFI was 30700 MFI and 29200 MFI.
